Among the data in the supplement of paper PMC9446081 are relative growth values, retold here.

About 220 (0.56%) of roughly 39,000 compounds showed activity. The list shows a part of the results.
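Also: static incubation at 37 °C against the wild-type strain, values averaged over two biological replicates.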

In this assay the test system is Escherichia coli K-12 BW25113. The assay is described as follows: relative growth (OD600 normalised to plate interquartile mean) (fraction); higher = less growth inhibition, active = 0.2 or less. As to conditions: 50 µM; LB; incubation time: overnight (16-24 h).
For `C[C@@H]1CN([C@H](C)CO)C(=O)CCCn2cc(nn2)CO[C@H]1CN(C)C(=O)Nc1cccc(C(F)(F)F)c1`, the relative growth was inactive: 0.985.

On to `C[C@@H]1CN([C@H](C)CO)C(=O)c2cc(NS(=O)(=O)c3ccccc3)ccc2O[C@@H](C)CCCCO[C@H]1CN(C)Cc1ccccc1`, for which the relative growth is inactive: 1.01.

For the molecule `C[C@@H]1CCCCO[C@H](CN(C)C(=O)Nc2ccc(C(F)(F)F)cc2)[C@H](C)CN([C@H](C)CO)C(=O)c2cc(NC(=O)CCC(F)(F)F)ccc2O1`, the relative growth was inactive: 0.987.

In the case of `C[C@@H]1CN([C@@H](C)CO)S(=O)(=O)c2ccc(-c3ccc(C#N)cc3)cc2O[C@@H]1CN(C)C(=O)CN(C)C`, the relative growth is inactive: 1.01.

On to `CCOC(=O)/C=C(C)/C=C/C=C(C)/C=C/c1c(C)cc(OC)c(C)c1C`, for which the relative growth is inactive: 1.02.

With `O=S(=O)(c1ccccc1)N1CCN(CCO)CC1`, the relative growth is inactive: 1.

Consider `O=C(C[C@@H]1C=C[C@H](NS(=O)(=O)c2ccccc2)[C@H](CO)O1)NCc1ccncn1`, for which the relative growth is inactive: 0.998.

In the case of `COc1ccc(S(=O)(=O)Nc2cccc3c2O[C@@H](CN(C)Cc2ccc(Cl)c(Cl)c2)[C@@H](C)CN([C@H](C)CO)C3=O)cc1`, the relative growth was inactive: 1.01.

On to `CO[C@H](CN(C)S(=O)(=O)c1cccc(Cl)c1)[C@@H](C)CN([C@H](C)CO)S(=O)(=O)c1cccc(Cl)c1`, for which the relative growth was inactive: 1.04.

Take `CC(C)NC(=O)Nc1ccc2c(c1)C(=O)N([C@@H](C)CO)C[C@@H](C)[C@@H](CN(C)Cc1ccc(Cl)c(Cl)c1)OCCCC[C@@H](C)O2`: the relative growth is inactive: 0.993.

As to `O=C1CSC(=Nc2nccs2)N1`, the relative growth is inactive: 0.916.

As to `C[C@@H]1CN([C@@H](C)CO)C(=O)c2cc(NS(C)(=O)=O)ccc2O[C@@H](C)CCCCO[C@H]1CN(C)S(=O)(=O)c1cn(C)cn1`, the relative growth was inactive: 0.99.

As for `C=CC1=C(C)C(=Cc2[nH]c(Cc3[nH]c(C=C4NC(=O)C(C)=C4C=C)c(C)c3CCC(=O)O)c(CCC(=O)O)c2C)NC1=O`, the relative growth is inactive: 1.09.

In the case of `COc1ccc(NC(=O)N(C)C[C@@H]2OCCCC[C@@H](C)Oc3ccc(NC(=O)c4ccccc4)cc3C(=O)N([C@@H](C)CO)C[C@@H]2C)cc1`, the relative growth was inactive: 1.02.

Consider `C[C@H](CO)N1C[C@H](C)[C@@H](CN(C)Cc2ccc(Oc3ccccc3)cc2)Oc2ccc(NC(=O)Cc3cn(C)c4ccccc34)cc2C1=O`, for which the relative growth was inactive: 1.02.

On to `C[C@H](CO)N1C[C@H](C)[C@H](CN(C)Cc2ccccc2)Oc2ccc(NC(=O)CCCN(C)C)cc2C1=O`, for which the relative growth was inactive: 1.01.

On to `CCCNC(=O)N1C[C@H](O)COC[C@H]2O[C@H](CC(=O)NCCCN3CCOCC3)CC[C@@H]21`, for which the relative growth is inactive: 0.998.

With `C[C@H]1CN([C@@H](C)CO)C(=O)Cc2cc(NC(=O)Nc3ccccc3)ccc2O[C@@H]1CN(C)Cc1ccc(Oc2ccccc2)cc1`, the relative growth is inactive: 1.03.

Take `COc1ccc(NC(=O)N2CCCCN3[C@H](CN(C)C(C)=O)[C@H](c4ccc(C#Cc5ccccc5)cc4)[C@@H]3C2)cc1`: the relative growth was inactive: 0.994.

Take `COc1ccc(NC(=O)N(C)C[C@H]2OCCCC[C@@H](C)Oc3ccc(NS(=O)(=O)c4ccc(OC)cc4)cc3C(=O)N([C@H](C)CO)C[C@@H]2C)cc1`: the relative growth is inactive: 1.01.

In the case of `CC(C)NC(=O)N(C)C[C@@H]1Oc2cc(C#Cc3cccc(F)c3)ccc2S(=O)(=O)N([C@H](C)CO)C[C@@H]1C`, the relative growth was inactive: 1.

As to `CNC(=O)C[C@@H]1CC[C@@H]2[C@H](COC[C@H](O)CN2C(=O)Nc2cccc(OC)c2)O1`, the relative growth is inactive: 0.999.

As to `c1ccc2c(-c3cn[nH]c3)ccnc2c1`, the relative growth is inactive: 0.843.

Consider `Cc1noc(C)c1NC(=O)Nc1cccc2c1O[C@@H](CN(C)Cc1ccc(Oc3ccccc3)cc1)[C@H](C)CN([C@@H](C)CO)C2=O`, for which the relative growth was inactive: 0.991.

`O=C1OCCN1N=Cc1ccc([N+](=O)[O-])o1`: the relative growth was active: 0.0457.

On to `CO[C@@H](C(=O)N(C)C[C@H]1OCc2ccccc2-c2c(n(C)c3ccccc23)C(=O)N([C@@H](C)CO)C[C@@H]1C)c1ccccc1`, for which the relative growth was inactive: 1.01.

As for `CN(C)S(=O)(=O)N1Cc2nnn(C)c2[C@H](COCC2CC2)C1`, the relative growth is inactive: 0.963.

`O=C(CCc1cn(-c2ccc(C[C@H]3C(=O)O[C@@H](Cc4ccccc4)[C@H]4C=C(/C=C/C5CC5)CN43)cc2)nn1)NO`: the relative growth was inactive: 0.995.

As for `C[C@H](CO)N1C[C@H](C)[C@@H](CN(C)CC2CCCCC2)Oc2c(NC(=O)Cc3cn(C)c4ccccc34)cccc2C1=O`, the relative growth was inactive: 0.964.

As to `COc1ccc(CCNC(=O)[C@@]2(Sc3ccc(C)cc3)CC(=O)N(Cc3ccccc3C(F)(F)F)[C@@H]2c2ccc(CO)cc2I)cc1`, the relative growth was inactive: 1.

Consider `C[C@@H]1CN([C@@H](C)CO)C(=O)Cc2cc(NC(=O)c3ccncc3)ccc2O[C@H]1CN(C)S(=O)(=O)c1cn(C)cn1`, for which the relative growth is inactive: 1.01.

Regarding `CC[C@@H]1COCCC(=O)N1`, the relative growth was inactive: 1.

On to `O=C(Nc1cc(Cl)cc(Cl)c1O)c1c(O)c(Cl)cc(Cl)c1Cl`, for which the relative growth is inactive: 0.565.

As to `COc1ccc(CN(C)C[C@H]2Oc3c(NC(=O)Nc4cccc5ccccc45)cccc3C(=O)N([C@@H](C)CO)C[C@H]2C)cc1`, the relative growth was inactive: 1.01.

As for `C[C@@H]1CN([C@H](C)CO)C(=O)CCCn2nncc2CO[C@H]1CN(C)S(=O)(=O)c1ccc(-n2cccn2)cc1`, the relative growth is inactive: 0.999.

For the molecule `COc1ccc(S(=O)(=O)N(C)C[C@@H]2Oc3ncc(-c4cccc(OC)c4)cc3C(=O)N([C@H](C)CO)C[C@@H]2C)cc1`, the relative growth is inactive: 1.

As for `Cc1ccc(-c2ccc3c(c2)O[C@@H](CN(C)C(=O)Nc2ccc(C(F)(F)F)cc2)[C@H](C)CN([C@@H](C)CO)S3(=O)=O)cc1`, the relative growth is inactive: 0.735.

Consider `C[C@H](CO)N1C[C@H](C)[C@@H](CN(C)C(=O)Nc2cccc3ccccc23)Oc2c(NC(=O)Nc3ccc4c(c3)OCO4)cccc2C1=O`, for which the relative growth was inactive: 1.01.

Take `C[C@H](CO)N1C[C@H](C)[C@@H](CN(C)Cc2ccc(C(F)(F)F)cc2)OCCCC[C@H](C)Oc2ccc(NC(=O)Nc3ccc(F)cc3)cc2C1=O`: the relative growth is inactive: 0.973.

For `Cn1c(=O)c2c(NCCO)ccnc2n(C)c1=O`, the relative growth is inactive: 0.995.

`COc1ccc(S(=O)(=O)Nc2cccc3c2O[C@H](CN(C)C(=O)NC(C)C)[C@@H](C)CN([C@H](C)CO)C3=O)cc1`: the relative growth was inactive: 1.01.

As to `CC(C)NC(=O)N(C)C[C@@H]1Oc2c(NS(=O)(=O)c3ccc(Cl)cc3)cccc2C(=O)N([C@@H](C)CO)C[C@@H]1C`, the relative growth was inactive: 1.09.

In the case of `O=C(C[C@H]1CC[C@@H]2[C@H](COC[C@H](O)CN2S(=O)(=O)c2ccc(Cl)cc2)O1)NCCN1CCCC1`, the relative growth was inactive: 0.992.

On to `Cc1noc(C)c1S(=O)(=O)Nc1ccc2c(c1)C(=O)N([C@H](C)CO)C[C@H](C)[C@H](CN(C)C(=O)Nc1ccc(C(F)(F)F)cc1)OCCCC[C@H](C)O2`, for which the relative growth was inactive: 0.94.

As to `CCS(=O)(=O)N1CC[C@]2(CC1)CN(Cc1ccccc1OC)[C@@H](CO)c1c2c2ccc(cc2n1C)OC`, the relative growth was inactive: 1.03.

Regarding `COc1ccc(NC(=O)Nc2ccc3c(c2)CC(=O)N([C@H](C)CO)C[C@H](C)[C@H](CN(C)C(=O)Nc2cccc4ccccc24)O3)cc1`, the relative growth is inactive: 0.963.

With `C[C@@H]1CCCCO[C@@H](CN(C)C(=O)NC2CCCCC2)[C@@H](C)CN([C@@H](C)CO)C(=O)c2cc(NS(=O)(=O)c3ccc(F)cc3)ccc2O1`, the relative growth is inactive: 0.991.

With `CCS(=O)(=O)N1CC[C@@H]2CO[C@H](CN3CCN(C)CC3)[C@@H]2C1`, the relative growth is inactive: 0.937.

For the molecule `N[C@@H]1CCCN(c2c(Br)cnc3[nH]cc(NC(=O)C4CC4)c23)C1`, the relative growth was inactive: 0.878.

Take `COc1cccc(C#Cc2ccc3c(c2)O[C@H](CN(C)C(=O)c2ccccn2)[C@@H](C)CN([C@H](C)CO)S3(=O)=O)c1`: the relative growth was inactive: 1.04.

On to `COc1ccc(S(=O)(=O)Nc2ccc3c(c2)C(=O)N([C@@H](C)CO)C[C@@H](C)[C@@H](CN(C)S(C)(=O)=O)OCCCC[C@@H](C)O3)cc1`, for which the relative growth is inactive: 0.982.

For `O=c1cc(-c2cc(O)c(O)c(O)c2)oc2cc(O)cc(O)c12`, the relative growth is inactive: 0.994.

Take `C[C@@H]1CN([C@H](C)CO)C(=O)c2cc(NS(=O)(=O)c3ccc(F)cc3)ccc2O[C@H]1CN(C)S(=O)(=O)c1ccc(F)cc1`: the relative growth was inactive: 1.03.

Take `COc1ccc(S(=O)(=O)N(C)C[C@H]2Oc3ccc(NS(=O)(=O)c4cccs4)cc3C(=O)N([C@@H](C)CO)C[C@@H]2C)cc1`: the relative growth is inactive: 1.02.

On to `CCOn1c(=O)c(=O)n(OC)c2ccccc21`, for which the relative growth is inactive: 1.01.

Regarding `CC(=O)N[C@@H](C(=O)O)C(C)(C)S[NH2+][O-]`, the relative growth is inactive: 1.02.

Take `O=C(C[C@@H]1CC[C@H](NC(=O)CN2CCOCC2)[C@@H](CO)O1)NCc1cccc(F)c1`: the relative growth is inactive: 1.01.

Consider `C[C@H]1CN([C@@H](C)CO)C(=O)Cc2cc(NC(=O)Nc3ccc(F)cc3)ccc2O[C@H]1CN(C)Cc1ccc(C(=O)Nc2ccccc2N)cc1`, for which the relative growth is inactive: 1.01.

For `COc1ccc(NC(=O)Nc2ccc3c(c2)C(=O)N([C@H](C)CO)C[C@@H](C)[C@@H](CN(C)CC2CCCCC2)O3)cc1`, the relative growth was inactive: 1.02.

For `Cl.Nc1c(Br)cc(Br)cc1CNC1CCC(O)CC1` (stereo not drawn), the relative growth was inactive: 1.09.

Regarding `CC(C)c1ccc(/C=C/C(=O)Nc2nc3ccccc3s2)cc1`, the relative growth is inactive: 1.02.

As to `COc1cccc(S(=O)(=O)Nc2ccc3c(c2)[C@@H]2C[C@@H](CC(=O)NCC(F)(F)F)O[C@@H](CO)[C@@H]2O3)c1`, the relative growth was inactive: 1.01.

`O=C(C[C@H]1CC[C@H]2[C@@H](COC[C@H](O)CN2C(=O)Nc2cccc(F)c2)O1)NCc1ccccc1Cl`: the relative growth was inactive: 0.892.
